From the supplement of paper PMC8728848
The list shows a part of the results.

Key:
Assay in all cases: glycan array binding signal (z-score within array); higher = stronger binding
Conditions in all cases: glycan notation: IUPAC condensed, linker removed
[1] = biological target: Fuc(a1-2)Gal
Method in brief: (§1)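 Arrays were curated from the Consortium for Functional Glycomics database, 3228 in total, and kept only where the protein sequence was available. Binding is expressed as a within-array Z-score. This score was averaged across arrays of the same protein sequence at different concentrations or buffers and across linkers, and negative values can be read as non-binding.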

[2] = biological target: Fuc(a1-2)Gal(b1-3)GalNAc
Method in brief: as §1

[3] = biological target: Fuc(a1-2)Gal(b1-3)GalNAc(a1-3)[Fuc(a1-2)]Gal(b1-4)Glc
Method in brief: as §1

[4] = biological target: Fuc(a1-2)Gal(b1-3)GalNAc(a1-3)[Fuc(a1-2)]Gal(b1-4)GlcNAc
Method in brief: as §1

[5] = biological target: Fuc(a1-2)Gal(b1-3)GalNAc(b1-3)Gal
Method in brief: as §1

[6] = biological target: Fuc(a1-2)Gal(b1-3)GalNAc(b1-3)Gal(a1-4)Gal(b1-4)Glc
Method in brief: as §1

[7] = biological target: Fuc(a1-2)Gal(b1-3)GalNAc(b1-3)Gal(b1-4)Glc
Method in brief: as §1

[8] = biological target: Fuc(a1-2)Gal(b1-3)GalNAc(b1-4)[Neu5Ac(a2-3)]Gal(b1-4)Glc
Method in brief: as §1

[9] = biological target: Fuc(a1-2)Gal(b1-3)GlcNAc
Method in brief: as §1

[10] = biological target: Fuc(a1-2)Gal(b1-3)GlcNAc(b1-2)Man(a1-3)[Fuc(a1-2)Gal(b1-3)GlcNAc(b1-2)Man(a1-6)]Man(b1-4)GlcNAc(b1-4)GlcNAc
Method in brief: as §1

[11] = biological target: Fuc(a1-2)Gal(b1-3)GlcNAc(b1-2)Man(a1-3)[Fuc(a1-2)Gal(b1-3)GlcNAc(b1-2)Man(a1-6)]Man(b1-4)GlcNAc(b1-4)[Fuc(a1-6)]GlcNAc
Method in brief: as §1

[12] = biological target: Fuc(a1-2)Gal(b1-3)GlcNAc(b1-3)Gal(b1-4)Glc
Method in brief: as §1

[13] = biological target: Fuc(a1-2)Gal(b1-3)GlcNAc(b1-3)GalNAc
Method in brief: as §1

[14] = biological target: Fuc(a1-2)Gal(b1-3)GlcNAc(b1-3)[Fuc(a1-2)Gal(b1-3)GlcNAc(b1-6)]GalNAc
Method in brief: as §1

[15] = biological target: Fuc(a1-2)Gal(b1-3)GlcNAc(b1-3)[Gal(b1-4)GlcNAc(b1-6)]Gal(b1-4)Glc
Method in brief: as §1

[16] = biological target: Fuc(a1-2)Gal(b1-3)GlcNAc(b1-3)[Neu5Ac(a2-6)Gal(b1-4)GlcNAc(b1-6)]Gal(b1-4)Glc
Method in brief: as §1

[17] = biological target: Fuc(a1-2)Gal(b1-3)GlcNAc6S
Method in brief: as §1

[18] = biological target: Fuc(a1-2)Gal(b1-3)[Fuc(a1-4)]GlcNAc
Method in brief: as §1

[19] = biological target: Fuc(a1-2)Gal(b1-3)[Fuc(a1-4)]GlcNAc(b1-2)Man(a1-3)[Fuc(a1-2)Gal(b1-3)[Fuc(a1-4)]GlcNAc(b1-2)Man(a1-3)]Man(b1-4)GlcNAc(b1-4)GlcNAc
Method in brief: as §1

[20] = biological target: Fuc(a1-2)Gal(b1-3)[Fuc(a1-4)]GlcNAc(b1-2)Man(a1-3)[Fuc(a1-2)Gal(b1-3)[Fuc(a1-4)]GlcNAc(b1-2)Man(a1-6)]Man(b1-4)GlcNAc(b1-4)[Fuc(a1-6)]GlcNAc(b1-4)[Fuc(a1-6)]GlcNAc
Method in brief: as §1

[21] = biological target: Fuc(a1-2)Gal(b1-3)[Fuc(a1-4)]GlcNAc(b1-3)[Fuc(a1-3)[Gal(b1-4)]GlcNAc(b1-6)]Gal(b1-4)Glc
Method in brief: as §1

[22] = biological target: Fuc(a1-2)Gal(b1-3)[Fuc(a1-4)]GlcNAc(b1-3)[Gal(b1-4)GlcNAc(b1-6)]Gal(b1-4)Glc
Method in brief: as §1

[23] = biological target: Fuc(a1-2)Gal(b1-4)Fuc(a1-3)]GlcNAc(b1-2)Man(a1-3)[Fuc(a1-2)Gal(b1-4)[Fuc(a1-3)]GlcNAc(b1-2)Man(a1-6)]Man(b1-4)GlcNAc(b1-4)GlcNAc
Method in brief: as §1

[24] = biological target: Fuc(a1-2)Gal(b1-4)Glc
Method in brief: as §1

[25] = biological target: Fuc(a1-2)Gal(b1-4)Glc6S
Method in brief: as §1

[26] = biological target: Fuc(a1-2)Gal(b1-4)GlcNAc
Method in brief: as §1

[27] = biological target: Fuc(a1-2)Gal(b1-4)GlcNAc(b1-2)Man
Method in brief: as §1

[28] = biological target: Fuc(a1-2)Gal(b1-4)GlcNAc(b1-2)Man(a1-3)[Fuc(a1-2)Gal(b1-4)GlcNAc(b1-2)Man(a1-6)]Man(b1-4)GlcNAc(b1-4)GlcNAc
Method in brief: as §1

[29] = biological target: Fuc(a1-2)Gal(b1-4)GlcNAc(b1-2)Man(a1-3)[Fuc(a1-2)Gal(b1-4)GlcNAc(b1-2)Man(a1-6)]Man(b1-4)GlcNAc(b1-4)[Fuc(a1-6)]GlcNAc
Method in brief: as §1

[30] = biological target: Fuc(a1-2)Gal(b1-4)GlcNAc(b1-2)[Fuc(a1-2)Gal(b1-4)GlcNAc(b1-4)]Man(a1-3)[Fuc(a1-2)Gal(b1-4)GlcNAc(b1-2)Man(a1-6)]Man(b1-4)GlcNAc(b1-4)GlcNAc
Method in brief: as §1

B1: MGL1 (Mus musculus), P49300 (protein)
chain: MIYENLQNSRIEEKTQEPGKAPSQSFLWRILSWTHLLLFSLGLSLLLLVVVSVIGSQNSQLRRDLGTLRATLDNTTSKIKAEFQSLDSRADSFEKGISSLKVDVEDHRQELQAGRDLSQKVTSLESTVEKREQALKTDLSDLTDHVQQLRKDLKALTCQLANLKNNGSEVACCPLHWTEHEGSCYWFSESEKSWPEADKYCRLENSHLVVVNSLEEQNFLQNRLANVVSWIGLTDQNGPWRWVDGTDFEKGFKNWAPLQPDNWFGHGLGGGEDCAHITTGGPWNDDVCQRTFRWICEMKLAKES
In the case of B1, the “glycan array binding signal (z-score)” value [1] is reported as -0.091, the “glycan array binding signal (z-score)” value [2] is reported as -0.211 and the “glycan array binding signal (z-score)” value [3] is reported as -0.47. The “glycan array binding signal (z-score)” value [4] was -0.41, the “glycan array binding signal (z-score)” value [5] was -0.281 and the “glycan array binding signal (z-score)” value [6] was 0.584. The “glycan array binding signal (z-score)” value [7] was -0.133, the “glycan array binding signal (z-score)” value [8] was -0.167 and the “glycan array binding signal (z-score)” value [9] was -0.458. The “glycan array binding signal (z-score)” value [10] was -0.169, the “glycan array binding signal (z-score)” value [11] was 0.293 and the “glycan array binding signal (z-score)” value [12] was 0.139. The “glycan array binding signal (z-score)” value [13] was -0.528, the “glycan array binding signal (z-score)” value [14] was 0.698 and the “glycan array binding signal (z-score)” value [15] was -0.609. For the same binder, the “glycan array binding signal (z-score)” value [16] was 0.032, the “glycan array binding signal (z-score)” value [17] was 0.014 and the “glycan array binding signal (z-score)” value [18] was 0.187. For the same binder, the “glycan array binding signal (z-score)” value [19] was 0.757, the “glycan array binding signal (z-score)” value [20] was -0.429 and the “glycan array binding signal (z-score)” value [21] was 0.371. For the same binder, the “glycan array binding signal (z-score)” value [22] was -0.054, the “glycan array binding signal (z-score)” value [23] was -0.12 and the “glycan array binding signal (z-score)” value [24] was 0.193. For the same binder, the “glycan array binding signal (z-score)” value [25] was -0.565, the “glycan array binding signal (z-score)” value [26] was 0.009 and the “glycan array binding signal (z-score)” value [27] was 0.007. For the same binder, the “glycan array binding signal (z-score)” value [28] was 0.049, the “glycan array binding signal (z-score)” value [29] was -0.409 and the “glycan array binding signal (z-score)” value [30] was -0.272.
